From ChEMBL document CHEMBL4888484, “Replenishing the malaria drug discovery pipeline: Screening and hit evaluation of the MMV Hit Generation Library 1 (HGL1) against asexual blood stage Plasmodium falciparum ,using a nano luciferase reporter read-out” (2022)
In all, about 150,000 compounds went through this assay and about 540 (0.36%) showed an effect of 50% or more. Some of the results follow.

System: Plasmodium falciparum
Experiment: Primary screen in NF54 nanoGlo assay, in single point, at 2uM, 72h; a lower Z score goes with more inhibition
Assay type: functional, Erythrocyte
Details: timepoint 72 hour

Compared with `CCNC(=O)c1cccnc1N(C)CCn1ccnc1C`, `COCCn1cnnc1CNC(=O)Cc1ccc2[nH]c(C)nc2c1` is lower in “% Inhibition” value: -4% for the first, -12% for the second.

First: Cc1noc(CNC(=O)CC2CCCC2)n1
Second: Cc1cccc(OC[C@]2(CNC(=O)C3CCCC3)C[C@@H](O)[C@@H](O)C2)n1
The “% Inhibition” value of the first is lower: -5% for the first, 2% for the second.

Going from `CCOc1ccccc1OC/C=C/CN1CCNCC1` to `CCOc1cccc(CNCCNc2ccccc2)c1`, the “% Inhibition” value rises from -13% to -2%.

Going from `Cc1nc([C@H](C)NC(=O)CCCn2cnnn2)cs1` to `CCCn1cc(Nc2cc(C(=O)OC)nc(C)n2)cn1`, the “% Inhibition” value rises from -5% to 0%.

First: CN(C)c1ccc(-n2nc3ccc(NC(=O)c4cccc5ccccc45)cc3n2)cc1
Second: CCCn1c(=O)sc2cc(NC(=O)c3ccccc3OC)ccc21
The “% Inhibition” value of the first is lower: -14% for the first, -2% for the second.

First: O=C(Nc1cccc(F)c1)N1CCN(c2nccs2)CC1
Second: CC(=O)N1CCN(C(=O)Nc2cc(-c3ccccc3C)nn2C)CC1
The “% Inhibition” value of the first is lower: -3% for the first, 1% for the second.

Compared with `Cc1cc(C)c(NC(=O)CN(C)C(C)C(=O)NCC2CCCO2)c(C)c1` (stereo not drawn), `COc1cc(NC(=O)c2oc(C)nc2C)ncn1` is higher in “% Inhibition” value: -7% for the first, 21% for the second.

First: COc1nccnc1N1CCN2C(=O)OC[C@H]2C1
Second: CN1CCCN(c2ncnc3c2CCN(C(=O)[C@H]2CCOC2)CC3)CC1
The “% Inhibition” value of the first is higher: -2% for the first, -12% for the second.

Compared with `FC(F)(F)c1cc(-c2ccco2)nc(N(C2CCCCC2)C2CCCCC2)n1`, `Cc1noc(C)c1CCC(=O)N(C[C@H]1CCCN1CC1CCCCC1)C(=O)CCc1c(C)noc1C` is higher in “% Inhibition” value: -10% for the first, -5% for the second.

Going from `CC1CN(Cc2ccccc2)CC(C)C1NC(=O)Nc1ccc(F)cn1` (stereo not drawn) to `CCC(c1ccc(F)cc1F)N1CCCC(C(=O)Nc2ncccc2C)C1` (stereo not drawn), the “% Inhibition” value falls from -6% to -8%.

Compared with `Cc1ccc(C(=O)NCc2ccc3c(c2)OCO3)c(=O)[nH]1`, `N#Cc1c(F)cccc1NCc1ccc(N2CCNC(=O)C2)cc1` is lower in “% Inhibition” value: -2% for the first, -17% for the second.

Going from `CS(=O)(=O)C[C@H]1CCCN(Cc2c(Cl)cncc2Cl)C1` to `CC(C)CN1CCC(N2C(=O)CN(Cc3ccc(Cl)cc3)C2=O)CC1`, the “% Inhibition” value falls from -11% to -12%.

Compared with `O=C(c1cscn1)N1CCC(C2CC2)CC1`, `Cc1cc2oc(C(=O)N3CCC(c4nc5ccccc5o4)CC3)c(C)c2cc1Cl` is lower in “% Inhibition” value: -2% for the first, -16% for the second.

Going from `COCCNC(=NC1CC1)NCc1ccccc1` to `CC[C@H](NC(=O)c1ccccc1)C(=O)NCc1cccc(CO)n1`, the “% Inhibition” value falls from 0% to -1%.

Compared with `Cc1ccccc1S(=O)(=O)N(c1ccc(F)cc1)C1CCN(Cc2cccc(Oc3ccccc3)c2)CC1`, `COc1cccc(OC)c1C(=O)N(Cc1cccc(OS(=O)(=O)c2ccc(F)cc2)c1)C(C)C` is higher in “% Inhibition” value: -4% for the first, 4% for the second.

Going from `Cc1cc(F)ccc1Cc1noc([C@@H](c2cccnc2)N(C)C)n1` to `Cc1cnn(Cc2ccccc2Cl)c1NC(=O)c1csnn1`, the “% Inhibition” value falls from 0% to -3%.

First: CCC[C@@H](CNC(=O)Cc1ccc(CO)cc1)N(C)C
Second: Cc1ccc2c(NC[C@@](C)(O)CCCO)ccnc2c1C
The “% Inhibition” value of the first is lower: -10% for the first, 8% for the second.

Compared with `O=C(Cn1ccc(=O)c2sccc21)NCC1CCC1`, `Cc1nc(CC(=O)N2CCC[C@H]2c2nonc2C)cs1` is higher in “% Inhibition” value: -12% for the first, -9% for the second.

Compared with `O=C(c1ccncc1)N1CCC2(CC1)C[C@@H](Cc1cccc(F)c1)CCO2`, `O=C(O)[C@H](Cc1ccncc1)c1ccc(Cl)cc1` is higher in “% Inhibition” value: -14% for the first, -3% for the second.

First: COc1ccc(-n2nc(C)c3c2NC(=O)C[C@@H]3c2cccc(OC)c2OCc2ccccc2F)cc1
Second: N#C[C@@H](NC(=O)c1ccc(NC(=O)c2ccccc2)cc1)c1cnn(-c2ccccc2)c1
The “% Inhibition” value of the first is lower: -9% for the first, 0% for the second.

Compared with `COc1ccc(C(C)CN2CCOC3CCC(OC)CC32)cc1` (stereo not drawn), `CCn1nc([C@@H]2CCCCN2C(=O)C(C)C)c2c1CCOC2` is higher in “% Inhibition” value: 1% for the first, 2% for the second.

Going from `CCn1nccc1S(=O)(=O)N[C@@H](C)c1nc(C2CC2)no1` to `O=C(N1CCCN(c2nc3ccccc3nc2-c2ccccc2)CC1)C(Cl)(Cl)Cl`, the “% Inhibition” value rises from 2% to 41%.

Going from `CCNC(=O)c1cccnc1N(C)CCn1ccnc1C` to `COCCn1cnnc1CNC(=O)Cc1ccc2[nH]c(C)nc2c1`, the Z score rises from 0.54 to 2.22.

First: Cc1noc(CNC(=O)CC2CCCC2)n1
Second: Cc1cccc(OC[C@]2(CNC(=O)C3CCCC3)C[C@@H](O)[C@@H](O)C2)n1
The Z score of the first is higher: 0.91 for the first, -0.39 for the second.

Going from `CCOc1ccccc1OC/C=C/CN1CCNCC1` to `CCOc1cccc(CNCCNc2ccccc2)c1`, the Z score falls from 1.44 to 0.19.

First: Cc1nc([C@H](C)NC(=O)CCCn2cnnn2)cs1
Second: CCCn1cc(Nc2cc(C(=O)OC)nc(C)n2)cn1
The Z score of the first is higher: 0.87 for the first, 0 for the second.

First: CN(C)c1ccc(-n2nc3ccc(NC(=O)c4cccc5ccccc45)cc3n2)cc1
Second: CCCn1c(=O)sc2cc(NC(=O)c3ccccc3OC)ccc21
The Z score of the first is higher: 1.61 for the first, 0.3 for the second.

First: O=C(Nc1cccc(F)c1)N1CCN(c2nccs2)CC1
Second: CC(=O)N1CCN(C(=O)Nc2cc(-c3ccccc3C)nn2C)CC1
The Z score of the first is higher: 0.46 for the first, -0.18 for the second.

First: Cc1cc(C)c(NC(=O)CN(C)C(C)C(=O)NCC2CCCO2)c(C)c1 (stereo not drawn)
Second: COc1cc(NC(=O)c2oc(C)nc2C)ncn1
The Z score of the first is higher: 1.11 for the first, -2.37 for the second.

Compared with `COc1nccnc1N1CCN2C(=O)OC[C@H]2C1`, `CN1CCCN(c2ncnc3c2CCN(C(=O)[C@H]2CCOC2)CC3)CC1` is higher in Z score: 0.39 for the first, 2.44 for the second.

First: FC(F)(F)c1cc(-c2ccco2)nc(N(C2CCCCC2)C2CCCCC2)n1
Second: Cc1noc(C)c1CCC(=O)N(C[C@H]1CCCN1CC1CCCCC1)C(=O)CCc1c(C)noc1C
The Z score of the first is higher: 1.13 for the first, 0.99 for the second.

First: CC1CN(Cc2ccccc2)CC(C)C1NC(=O)Nc1ccc(F)cn1 (stereo not drawn)
Second: CCC(c1ccc(F)cc1F)N1CCCC(C(=O)Nc2ncccc2C)C1 (stereo not drawn)
The Z score of the first is higher: 1.09 for the first, 1.03 for the second.

First: Cc1ccc(C(=O)NCc2ccc3c(c2)OCO3)c(=O)[nH]1
Second: N#Cc1c(F)cccc1NCc1ccc(N2CCNC(=O)C2)cc1
The Z score of the first is lower: 0.29 for the first, 1.87 for the second.

First: CS(=O)(=O)C[C@H]1CCCN(Cc2c(Cl)cncc2Cl)C1
Second: CC(C)CN1CCC(N2C(=O)CN(Cc3ccc(Cl)cc3)C2=O)CC1
The Z score of the first is lower: 1.72 for the first, 2.1 for the second.

First: O=C(c1cscn1)N1CCC(C2CC2)CC1
Second: Cc1cc2oc(C(=O)N3CCC(c4nc5ccccc5o4)CC3)c(C)c2cc1Cl
The Z score of the first is lower: 0.26 for the first, 1.38 for the second.

First: COCCNC(=NC1CC1)NCc1ccccc1
Second: CC[C@H](NC(=O)c1ccccc1)C(=O)NCc1cccc(CO)n1
The Z score of the first is lower: 0.06 for the first, 0.16 for the second.

First: Cc1ccccc1S(=O)(=O)N(c1ccc(F)cc1)C1CCN(Cc2cccc(Oc3ccccc3)c2)CC1
Second: COc1cccc(OC)c1C(=O)N(Cc1cccc(OS(=O)(=O)c2ccc(F)cc2)c1)C(C)C
The Z score of the first is higher: 0.56 for the first, -0.58 for the second.

Compared with `Cc1cc(F)ccc1Cc1noc([C@@H](c2cccnc2)N(C)C)n1`, `Cc1cnn(Cc2ccccc2Cl)c1NC(=O)c1csnn1` is higher in Z score: 0 for the first, 0.39 for the second.

First: CCC[C@@H](CNC(=O)Cc1ccc(CO)cc1)N(C)C
Second: Cc1ccc2c(NC[C@@](C)(O)CCCO)ccnc2c1C
The Z score of the first is higher: 1.05 for the first, -1.38 for the second.

First: O=C(Cn1ccc(=O)c2sccc21)NCC1CCC1
Second: Cc1nc(CC(=O)N2CCC[C@H]2c2nonc2C)cs1
The Z score of the first is higher: 2.13 for the first, 1.81 for the second.

Going from `O=C(c1ccncc1)N1CCC2(CC1)C[C@@H](Cc1cccc(F)c1)CCO2` to `O=C(O)[C@H](Cc1ccncc1)c1ccc(Cl)cc1`, the Z score falls from 1.83 to 0.38.

Compared with `COc1ccc(-n2nc(C)c3c2NC(=O)C[C@@H]3c2cccc(OC)c2OCc2ccccc2F)cc1`, `N#C[C@@H](NC(=O)c1ccc(NC(=O)c2ccccc2)cc1)c1cnn(-c2ccccc2)c1` is lower in Z score: 0.92 for the first, -0.01 for the second.

Going from `COc1ccc(C(C)CN2CCOC3CCC(OC)CC32)cc1` (stereo not drawn) to `CCn1nc([C@@H]2CCCCN2C(=O)C(C)C)c2c1CCOC2`, the Z score falls from -0.12 to -0.21.

Going from `CCn1nccc1S(=O)(=O)N[C@@H](C)c1nc(C2CC2)no1` to `O=C(N1CCCN(c2nc3ccccc3nc2-c2ccccc2)CC1)C(Cl)(Cl)Cl`, the Z score falls from -0.23 to -8.32.
